Measured values taken from PubChem BioAssay AID2675 (National Center for Advancing Translational Sciences (NCATS), 2010).
The campaign covered roughly 280,000 compounds. About 100 (0.036%) were called active. The shares of active, inactive and inconclusive entries below differ from those in the screen. Calls come from the whole dose curve; as a rule, active = well fitted inhibition curve with a large enough effect in the signal ratio, with a control signal flat (not every such curve was filed as active); inconclusive = small, poorly fitted or top-dose-only effect, or effect the other way, or a change in a side signal; inactive = no such curve, though single readings can be large or run the other way; the % refers to the signal ratio. Potencies beside an inconclusive call are fits to weak or partial responses and may not hold up. A note “side channel” means that the fit belongs to a control or component signal, not to the main read-out.

target: Muscleblind-like protein 1 (Homo sapiens) (UniProt Q9NR56); test: qHTS Assay for Inhibitors of MBNL1-poly(CUG) RNA binding; conditions: TR-FRET MBNL1-His/biotin-(CUG)12 binding, 665/545 ratio; activity change, negative = inhibition: at 57.5 µM (top of the series)
Chain of UniProt Q9NR56 (Q9NR56 whole entry, looked up): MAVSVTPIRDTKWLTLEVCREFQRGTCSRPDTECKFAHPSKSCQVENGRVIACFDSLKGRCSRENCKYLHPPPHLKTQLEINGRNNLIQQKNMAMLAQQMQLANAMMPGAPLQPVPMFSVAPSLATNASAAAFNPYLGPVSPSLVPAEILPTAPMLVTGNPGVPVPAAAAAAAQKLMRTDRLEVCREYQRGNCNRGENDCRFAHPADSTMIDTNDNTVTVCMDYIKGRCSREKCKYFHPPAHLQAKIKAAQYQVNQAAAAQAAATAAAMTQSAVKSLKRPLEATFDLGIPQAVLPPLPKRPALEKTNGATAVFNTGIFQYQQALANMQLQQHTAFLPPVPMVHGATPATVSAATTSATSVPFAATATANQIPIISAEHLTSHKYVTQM
Method in brief: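 Ratiometric TR-FRET (665 over 545 nm, excitation 340 nm) tracks disruption of MBNL1-His/biotin-(CUG)12 complex after 60 min at room temperature, with compounds at 92 nM to 58 uM final.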
% is set by controls: 0 for no effect and ±100 for the full control effect; potency is the fitted concentration of half-maximal effect; tags give direction and shape of the fitted curve or compound fluorescence and quenching.

SMILES | Potency | activity change, negative = inhibition
COc1ccc(OC)c2c(=O)cc(C(=O)O)[nH]c12 | inconclusive: 35.5 µM [quencher, side channel, single point] | 
O=C1S/C(=C\C=C\c2ccco2)C(=O)N1c1ccc(O)cc1 | inconclusive: 0.126 µM [quencher, side channel, full curve, poor fit] | 
O=C(NNC(=O)c1cc(Cl)ccc1O)c1cccs1 | inactive | 
O=C(O)CNC(=O)/C(=C\c1cccc([N+](=O)[O-])c1)NC(=O)c1ccco1 | inconclusive: 15.8 µM [quencher, side channel, partial curve] | 
CCN(CC)C(=O)C(=O)c1c(-c2ccccc2)[nH]c2ccccc12 |  | inconclusive: -18.1% [phenotype inactive]
CCCNC(=O)c1nn2cc(Br)cnc2c1Br | inconclusive: 14.1 µM [quencher, side channel, partial curve] | 
Cc1nnc(SCC(=O)NNC(=O)c2ccc(Cl)cc2)n1CC1CCCO1 (configuration not stated) | inconclusive: 11.2 µM [quencher, side channel, partial curve] | 
Cc1ccc(NC(=O)c2ccc([N+](=O)[O-])o2)cc1C | inconclusive: 15.8 µM [quencher, side channel, partial curve] | 
COc1ccc(-c2cc3ccccc3nc2N)cc1OC | inconclusive: 39.8 µM [quencher, side channel, partial curve] | 
CN(C)c1ccc(C(=O)OCc2ccccc2)cc1 | inactive | 
O=C(N/N=C/c1cc(Cl)cc([N+](=O)[O-])c1O)C1CC1 | inconclusive: 25.1 µM [quencher, side channel, single point] | 
O=C(c1nc2ccccc2[nH]1)c1ccccc1[N+](=O)[O-] | inconclusive: 15.8 µM [quencher, side channel, partial curve] | 
O=C(CSc1ccc(Cl)cc1)N/N=C/c1ccc([N+](=O)[O-])o1 | inconclusive: 14.1 µM [quencher, side channel, partial curve] | 
O=C(C[n+]1ccc(C(=O)NCCCO)cc1)c1cccc(Br)c1 | inconclusive: 17.8 µM [quencher, side channel, partial curve] | 
NNC(=O)c1oc2nc(-c3ccco3)cc(-c3ccco3)c2c1N | inconclusive: 14.1 µM [quencher, side channel, partial curve] | 
Cc1ccc(/C=C2\SC(=S)N(CCCC(=O)Nc3cccnc3)C2=O)cc1 | inactive | 
CC(C)Cn1c2nc3ccccc3nc2c2c(=O)n(CCN3CCOCC3)cnc21 | inconclusive: 17.8 µM [quencher, partial curve] | 
CCOc1cc(/C=N/NC(=O)CSc2nnc(C)s2)ccc1OCc1ccccc1Cl | inconclusive: 0.126 µM [fluorescent, side channel, full curve] | 
Cc1c(C(=O)Oc2cc(N)n(S(C)(=O)=O)n2)cccc1[N+](=O)[O-] | inactive | 

SMILES | Potency | activity change, negative = inhibition
CC(C)(C)Sc1ccc([N+](=O)[O-])cc1C(=O)Nc1ccncc1 | inconclusive: 12.6 µM [quencher, partial curve] | 
CC(=O)Nc1ccc(NC(=O)c2cc(-c3cc(C)cc(C)c3O)n[nH]2)cc1 | inactive | 
Cn1c2ccccc2c(=O)c2ccc(C#CC3(N)CCCCC3)cc21 | inconclusive: 31.6 µM [quencher, side channel, single point] | 
COCCCNC(=O)c1c(N)n(-c2ccc(S(N)(=O)=O)cc2)c2nc3ccccc3nc12 | inconclusive: 25.1 µM [quencher, side channel, partial curve, poor fit] | 
CCNc1nc(ON=C(C)C)nc(N(C)C)n1 | inactive | 
CCOC(=O)CCCNc1ccc([N+](=O)[O-])cc1[N+](=O)[O-] | inconclusive: 25.1 µM [quencher, side channel, single point] | 
COc1cc(C(=O)O/N=C2\C=CC(=O)C(C)=C2)cc(OC)c1OC | inconclusive: 10 µM [quencher, side channel, partial curve] | 
C=CCNC(=O)c1sc(=S)n(-c2ccc(C(=O)OCC)cc2)c1N | inconclusive: 15.8 µM [quencher, side channel, partial curve] | 
O=C1c2cccc3cccc(c23)N1CN1CCN(c2ccccn2)CC1 | inconclusive: 20 µM [quencher, single point] | 
CC(NC(=O)COC(=O)c1ccc([N+](=O)[O-])s1)c1ccccc1 (configuration not stated) | inconclusive: 2.51 µM [quencher, side channel, partial curve, poor fit] | 
CN1/C(=C\C(=S)NC(=O)c2ccccc2Cl)C(C)(C)c2ccccc21 | inconclusive: 20 µM [quencher, side channel, partial curve] | 
O=C(CO/N=C/c1ccccc1)N1c2ccccc2Oc2ccccc21 | inconclusive: 39.8 µM [quencher, side channel, single point] | 
Cc1cc2c(ccc3[nH]onc32)n1 | inconclusive: 31.6 µM [quencher, side channel, partial curve] | 
O=C(CS(=O)(=O)c1c[nH]c2ccccc12)NC1CCCCC1 | inconclusive: 0.891 µM [quencher, side channel, partial curve, poor fit] | 
CCOc1ccc2[nH]c(=O)c(CN(CCO)C(c3nnnn3C3CCCCC3)C(C)C)cc2c1 (configuration not stated) | inconclusive: 20 µM [quencher, side channel, single point] | 
CNS(=O)(=O)c1cc(-c2nnc(Nc3ccc(NC(C)=O)cc3)c3ccccc23)ccc1C | inconclusive: 35.5 µM [quencher, side channel, partial curve, poor fit] | 
Nc1c2c(nc3ccccc13)N(C1CCCCC1)CC2 | inconclusive: 39.8 µM [quencher, side channel, single point] | 
O=C(c1cccs1)n1nc(NCc2ccccc2)nc1NCc1ccccc1 | inconclusive: 3.98 µM [fluorescent, side channel, full curve, poor fit] | 
O=C(CCN1C(=O)/C(=C\c2ccccc2)SC1=S)N1CCOCC1 | inconclusive: 4.47 µM [quencher, side channel, partial curve] | 

SMILES | Potency | activity change, negative = inhibition
O=C1c2ccccc2C(=O)N1c1ccc(Br)c2cccnc12 | inconclusive: 39.8 µM [quencher, side channel, single point] | 
O=C1c2ccccc2C(=O)N1/N=C/c1ccc(O)c(O)c1O | inconclusive: 28.2 µM [quencher, side channel, partial curve, poor fit] | 
O=C(O)c1ccc(Cl)c(NC(=S)NC(=O)c2ccccc2[N+](=O)[O-])c1 | inconclusive: 22.4 µM [quencher, side channel, single point] | 
O=[N+]([O-])c1cccc(-c2nnc3ccccn23)c1 | inconclusive: 3.16 µM [quencher, side channel, full curve] | 
Cc1cc(OCC(=O)Nc2cc(-c3nn4c(C)nnc4s3)ccc2C)ccc1Cl | inconclusive: 31.6 µM [fluorescent, side channel, single point] | 
COc1ccc(CCNC(=O)N2CCOCC2)cc1 | inconclusive: 0.447 µM [fluorescent, side channel, full curve] | 
Cc1ccc(Sc2ncnc(N)c2[N+](=O)[O-])cc1 | inconclusive: 2.82 µM [quencher, side channel, full curve, poor fit] | 
CCOC(=O)/C(=C/C1=CC(=C/N(C)C)/C(=O)O1)C(C)=O | inconclusive: 20 µM [quencher, side channel, partial curve] | 
CCCNC(=O)c1ccc2nc(-c3ccccc3)c(-c3ccccc3)nc2c1 | inconclusive: 7.94 µM [quencher, side channel, partial curve] | 
CC(=O)/C(=N\Nc1ccccc1Cl)Sc1nnc(-c2ccccc2)n1-c1ccccc1 | inactive | 
Cn1cc([N+](=O)[O-])c(C(=O)Nc2ccc(C3CCCCC3)cc2)n1 | inconclusive: 17.8 µM [quencher, side channel, partial curve] | 
COc1cccc(/C=C/C(=O)OCC(=O)c2c[nH]c3ccccc23)c1OC | inconclusive: 1.26 µM [quencher, side channel, full curve, poor fit] | 
COc1ccc(-n2c(C)cc(/C=C3\C(=N)N4N=C(CC(=O)N5CCOCC5)SC4=NC3=O)c2C)cc1 | inconclusive: 10 µM [quencher, side channel, partial curve] | 
Cc1cc(C)nc(NS(=O)(=O)c2ccc(NC(=O)c3cc(=O)c4ccccc4o3)cc2)n1 | inconclusive: 14.1 µM [quencher, side channel, partial curve] | 
O=[N+]([O-])c1ccc(Cl)c(C2Nc3cccc4cccc(c34)N2)c1 | inconclusive: 25.1 µM [quencher, side channel, partial curve] | 
Cc1ccc(Cn2ncc3c(NCCN(C)C)ncnc32)cc1 | inactive | 
O=C(N/N=C\c1cc(Br)cs1)C1COc2ccccc2O1 (configuration not stated) | inactive | 
COc1ccc(C(=O)[C@H]2[C@H]3C(=O)N(c4ccccc4)C(=O)[C@H]3C3C=CC=NN32)cc1 (some centres not stated) | inconclusive: 14.1 µM [quencher, side channel, partial curve] | 
COc1ccc(Cl)cc1NC(=O)Cn1c(=O)oc2ccccc21 | inconclusive: 6.31 µM [fluorescent, side channel, single point] | 
